For 39 compounds, cell viability results are on record in the supplement of paper PMC9588766.

Where a name gives a salt, the structure may show the parent alone. In all, about 1,900 compounds were measured (“cell viability of compound + 1 nM pemigatinib relative to pemigatinib-only (DMSO) wells”: median about 0.95, lowest 2% from about 0.22 on). Some of the results follow.

The test system of the assay is PDC-DUC18828. Kind of assay: cell viability of compound + 1 nM pemigatinib relative to pemigatinib-only (DMSO) wells (fraction); PDC-DUC18828 is a patient-derived cholangiocarcinoma cell line; higher = less growth inhibition. The following applies: first compound 1 µM; pemigatinib concentration 1 nM; 72 h. Here is the method: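 Selleck Bioactive library screen in the patient-derived FGFR2 fusion-positive ICC cell line PDC-DUC18828 (500 cells/well). Each compound was tested at 1 uM with 1 nM pemigatinib, in triplicate, for 72 h. Viability was read by CellTiter-Glo and normalised to plate DMSO controls. Value is the paper's averaged normalised viability.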
`COc1c(O)cc2c(c1O)[C@@H]1O[C@H](CO)[C@@H](O)[C@H](O)[C@H]1OC2=O` [Bergenin] + CCN1C(=O)N(c2c(F)c(OC)cc(OC)c2F)Cc2cnc3[nH]c(CN4CCOCC4)cc3c21 [pemigatinib]: the cell viability is 0.935. With `CCc1c(C(=O)NCCc2ccc(N3CCCCC3)cc2)[nH]c2ccc(Cl)cc12` + CCN1C(=O)N(c2c(F)c(OC)cc(OC)c2F)Cc2cnc3[nH]c(CN4CCOCC4)cc3c21 [pemigatinib], the cell viability came to 1.01. Turning to `CN1CCN(c2ccc(C(=O)Nc3n[nH]c4ccc(Cc5cc(F)cc(F)c5)cc34)c(NC3CCOCC3)c2)CC1` [Entrectinib (RXDX-101)] + CCN1C(=O)N(c2c(F)c(OC)cc(OC)c2F)Cc2cnc3[nH]c(CN4CCOCC4)cc3c21 [pemigatinib], the cell viability came out at 0.818. The result for `Nc1ncnc2c1c(-c1cccc(OCc3ccccc3)c1)cn2C1CC(CN2CCCC2)C1` (centres undefined) + CCN1C(=O)N(c2c(F)c(OC)cc(OC)c2F)Cc2cnc3[nH]c(CN4CCOCC4)cc3c21 [pemigatinib] reads 0.911. For `O=C(Nc1cccc(Cl)c1)Nc1ncc(CCNc2ncnc3ccsc23)s1` [SNS-314 Mesylate] + CCN1C(=O)N(c2c(F)c(OC)cc(OC)c2F)Cc2cnc3[nH]c(CN4CCOCC4)cc3c21 [pemigatinib], the cell viability turned out to be 0.628. The result for `Nc1nc(N)nc(-c2cc(Cl)ccc2Cl)n1` [Irsogladine] + CCN1C(=O)N(c2c(F)c(OC)cc(OC)c2F)Cc2cnc3[nH]c(CN4CCOCC4)cc3c21 [pemigatinib] reads 0.986; that for `CCN1CCCC1CNC(=O)c1cc(S(=O)(=O)CC)c(N)cc1OC` (centres undefined) [Amisulpride] + CCN1C(=O)N(c2c(F)c(OC)cc(OC)c2F)Cc2cnc3[nH]c(CN4CCOCC4)cc3c21 [pemigatinib], 0.941. Under `CCCS(=O)(=O)Nc1ccc(F)c(C(=O)c2c[nH]c3ncc(Cl)cc23)c1F` + CCN1C(=O)N(c2c(F)c(OC)cc(OC)c2F)Cc2cnc3[nH]c(CN4CCOCC4)cc3c21 [pemigatinib] stands 0.954; under `CNC(=O)CN1CCC(Oc2cc3c(Nc4cccc(Cl)c4F)ncnc3cc2OC)CC1` [AZD8931 (Sapitinib)] + CCN1C(=O)N(c2c(F)c(OC)cc(OC)c2F)Cc2cnc3[nH]c(CN4CCOCC4)cc3c21 [pemigatinib], 0.809. Under `CCOc1cc(N2CCC(O)CC2)ccc1Nc1ncc2c(n1)N(C)c1ccccc1C(=O)N2C` + CCN1C(=O)N(c2c(F)c(OC)cc(OC)c2F)Cc2cnc3[nH]c(CN4CCOCC4)cc3c21 [pemigatinib] stands 0.913; under `CNC(=O)c1ccccc1Sc1ccc2c(/C=C/c3ccccn3)n[nH]c2c1` [Axitinib] + CCN1C(=O)N(c2c(F)c(OC)cc(OC)c2F)Cc2cnc3[nH]c(CN4CCOCC4)cc3c21 [pemigatinib], 0.753; under `Cc1ccc(NC(=O)Nc2cc(C(F)(F)F)ccc2F)cc1Nc1ccc2c(c1)NC(=O)/C2=C\c1ccc[nH]1` + CCN1C(=O)N(c2c(F)c(OC)cc(OC)c2F)Cc2cnc3[nH]c(CN4CCOCC4)cc3c21 [pemigatinib], 0.934. `Fc1ccc2[nH]ccc2c1-c1nc(N2CCOCC2)c2sc(CN3CCN(CC4CC4)CC3)cc2n1` + CCN1C(=O)N(c2c(F)c(OC)cc(OC)c2F)Cc2cnc3[nH]c(CN4CCOCC4)cc3c21 [pemigatinib]: the cell viability came out at 0.828. The result for `CC(CN1c2ccccc2Sc2ccccc21)N(C)C` (centres undefined) [Promethazine HCl] + CCN1C(=O)N(c2c(F)c(OC)cc(OC)c2F)Cc2cnc3[nH]c(CN4CCOCC4)cc3c21 [pemigatinib] reads 0.972. Under `CNC(=O)c1ccc(N2C(=S)N(c3cnc(C#N)c(C(F)(F)F)c3)C(=O)C23CCC3)cc1F` + CCN1C(=O)N(c2c(F)c(OC)cc(OC)c2F)Cc2cnc3[nH]c(CN4CCOCC4)cc3c21 [pemigatinib] stands 0.92; under `O=C(c1ccc(OCCN2CCCCC2)cc1)c1c(-c2ccc(O)cc2)sc2cc(O)ccc12` [Raloxifene HCl] + CCN1C(=O)N(c2c(F)c(OC)cc(OC)c2F)Cc2cnc3[nH]c(CN4CCOCC4)cc3c21 [pemigatinib], 0.888. The result for `COC1(c2sc3c(N4CCOCC4)nc(-c4cnc(N)nc4)nc3c2C)COC1` + CCN1C(=O)N(c2c(F)c(OC)cc(OC)c2F)Cc2cnc3[nH]c(CN4CCOCC4)cc3c21 [pemigatinib] reads 0.225; that for `CCOC(=O)C1=C(C)NC(C)=C(C(=O)OC)C1c1cccc([N+](=O)[O-])c1` (centres undefined) [Nitrendipine] + CCN1C(=O)N(c2c(F)c(OC)cc(OC)c2F)Cc2cnc3[nH]c(CN4CCOCC4)cc3c21 [pemigatinib], 0.903. With `COc1ccc(-c2coc3cc(O)cc(O)c3c2=O)cc1` [Biochanin A] + CCN1C(=O)N(c2c(F)c(OC)cc(OC)c2F)Cc2cnc3[nH]c(CN4CCOCC4)cc3c21 [pemigatinib], the cell viability worked out at 0.95. Consider `O=S(=O)(NCCNC/C=C/c1ccc(Br)cc1)c1cccc2cnccc12` + CCN1C(=O)N(c2c(F)c(OC)cc(OC)c2F)Cc2cnc3[nH]c(CN4CCOCC4)cc3c21 [pemigatinib], for which the cell viability is 1.02. The result for `NS(=O)(=O)NCCNc1nonc1/C(=N/O)Nc1ccc(F)c(Br)c1` + CCN1C(=O)N(c2c(F)c(OC)cc(OC)c2F)Cc2cnc3[nH]c(CN4CCOCC4)cc3c21 [pemigatinib] reads 0.979; that for `O[C@@H](COc1cccc2ncccc12)CN1CCN(C2c3ccccc3[C@@H]3[C@H](c4ccccc42)C3(F)F)CC1` (some centres undefined) + CCN1C(=O)N(c2c(F)c(OC)cc(OC)c2F)Cc2cnc3[nH]c(CN4CCOCC4)cc3c21 [pemigatinib], 1. Under `COC1=CC(=O)C[C@@H](C)[C@]12Oc1c(Cl)c(OC)cc(OC)c1C2=O` [Griseofulvin] + CCN1C(=O)N(c2c(F)c(OC)cc(OC)c2F)Cc2cnc3[nH]c(CN4CCOCC4)cc3c21 [pemigatinib] stands 0.953; under `CCC(=O)NCC[C@@H]1CCc2ccc3c(c21)CCO3` [Ramelteon] + CCN1C(=O)N(c2c(F)c(OC)cc(OC)c2F)Cc2cnc3[nH]c(CN4CCOCC4)cc3c21 [pemigatinib], 0.991; under `CC(C)(C)c1cc(/C=C(\C#N)C(N)=S)cc(C(C)(C)C)c1O` [Tyrphostin AG 879] + CCN1C(=O)N(c2c(F)c(OC)cc(OC)c2F)Cc2cnc3[nH]c(CN4CCOCC4)cc3c21 [pemigatinib], 0.667. For the compound `CN(C)CCC(c1ccc(Cl)cc1)c1ccccn1` (centres undefined) [Chlorpheniramine Maleate] + CCN1C(=O)N(c2c(F)c(OC)cc(OC)c2F)Cc2cnc3[nH]c(CN4CCOCC4)cc3c21 [pemigatinib], the cell viability was 0.981. Under `OCC(O)CN1CCN(c2ccccc2)CC1` (centres undefined) [Dropropizine] + CCN1C(=O)N(c2c(F)c(OC)cc(OC)c2F)Cc2cnc3[nH]c(CN4CCOCC4)cc3c21 [pemigatinib] stands 1.04; under `COc1ccccc1N1CCN(CCN2C(=O)CC3(CCCC3)CC2=O)CC1` + CCN1C(=O)N(c2c(F)c(OC)cc(OC)c2F)Cc2cnc3[nH]c(CN4CCOCC4)cc3c21 [pemigatinib], 0.986; under `CCCC(CCC)C(=O)O` [Divalproex Sodium] + CCN1C(=O)N(c2c(F)c(OC)cc(OC)c2F)Cc2cnc3[nH]c(CN4CCOCC4)cc3c21 [pemigatinib], 0.996.

On to `CCCC(CCC)C(=O)O` [Valproic acid sodium salt (Sodium valproate)] + CCN1C(=O)N(c2c(F)c(OC)cc(OC)c2F)Cc2cnc3[nH]c(CN4CCOCC4)cc3c21 [pemigatinib], for which the cell viability worked out at 1.05.

Consider `CN(C)[C@@H](CCOc1cccc2ccccc12)c1ccccc1` [Dapoxetine HCl] + CCN1C(=O)N(c2c(F)c(OC)cc(OC)c2F)Cc2cnc3[nH]c(CN4CCOCC4)cc3c21 [pemigatinib], for which the cell viability is 0.973. The result for `CC[C@H](Nc1ncnc2[nH]cnc12)c1nc2cccc(F)c2c(=O)n1-c1ccccc1` [CAL-101 (Idelalisib, GS-1101)] + CCN1C(=O)N(c2c(F)c(OC)cc(OC)c2F)Cc2cnc3[nH]c(CN4CCOCC4)cc3c21 [pemigatinib] reads 0.936; that for `O=CN1CC/C(=C/c2ccc3c(c2)OCO3)C1=O` + CCN1C(=O)N(c2c(F)c(OC)cc(OC)c2F)Cc2cnc3[nH]c(CN4CCOCC4)cc3c21 [pemigatinib], 0.873; that for `CC(C)c1noc(N2CCC(COc3ccc(-c4ccc(S(C)(=O)=O)cc4)nc3)CC2)n1` + CCN1C(=O)N(c2c(F)c(OC)cc(OC)c2F)Cc2cnc3[nH]c(CN4CCOCC4)cc3c21 [pemigatinib], 1.03. Turning to `O=C(NC1CCNCC1)c1n[nH]cc1NC(=O)c1c(Cl)cccc1Cl` + CCN1C(=O)N(c2c(F)c(OC)cc(OC)c2F)Cc2cnc3[nH]c(CN4CCOCC4)cc3c21 [pemigatinib], the cell viability was determined as 0.435. Regarding `O=C1CCc2c(ccc3ccccc23)O1` [Splitomicin] + CCN1C(=O)N(c2c(F)c(OC)cc(OC)c2F)Cc2cnc3[nH]c(CN4CCOCC4)cc3c21 [pemigatinib], the cell viability came to 0.922. The result for `CC[C@@H]1C(=O)N(C)c2cnc(Nc3ccc(C(=O)NC4CCN(C)CC4)cc3OC)nc2N1C1CCCC1` + CCN1C(=O)N(c2c(F)c(OC)cc(OC)c2F)Cc2cnc3[nH]c(CN4CCOCC4)cc3c21 [pemigatinib] reads 0.321; that for `Cc1c(OCC(F)(F)F)ccnc1C[S+]([O-])c1nc2ccccc2[nH]1` (centres undefined) [Lansoprazole] + CCN1C(=O)N(c2c(F)c(OC)cc(OC)c2F)Cc2cnc3[nH]c(CN4CCOCC4)cc3c21 [pemigatinib], 0.969. Under `CCS(=O)(=O)N1CCC([C@@H](C)n2c(C)c(C(=O)NCc3c(OC)cc(C)[nH]c3=O)c3ccccc32)CC1` + CCN1C(=O)N(c2c(F)c(OC)cc(OC)c2F)Cc2cnc3[nH]c(CN4CCOCC4)cc3c21 [pemigatinib] stands 0.905.
